# According to the antibiotic and cytotoxicity screens of Wong et al. (2023):
# The other results are listed elsewhere or left out.
# Columns and labels:
# HSkMC = human skeletal muscle cells; assay: cytotoxicity call (relative viability < 0.9); details: 10 µM
# HepG2 = assay: cytotoxicity call (relative viability < 0.9); details: 10 µM
# S. aureus RN4220 = assay: growth inhibition call (relative growth <= 0.2); details: 50 µM
Structure (SMILES),cytotoxicity call (HSkMC),cytotoxicity call (HepG2),growth inhibition call (S. aureus RN4220)
Cc1[nH]c(=O)[nH]c(=O)c1/C=C/C(=O)O,inactive,inactive,inactive
C=CCOC(=O)[C@@H]1[C@@H]2C=C[C@@]3(O2)[C@@H]1C(=O)N(CCCCCCO)[C@H]3C(=O)N(CC=C)Cc1ccccc1,active,active,inactive
COc1ccc(/C=C/CN2CCC(C(=O)N[C@@H](c3ccc(-c4ccccc4)cc3)c3cnccn3)CC2)cc1,inactive,active,active
NCCC(=O)NC(Cc1c[nH]cn1)C(=O)O (configuration not stated),inactive,inactive,inactive
C[C@@H]1CCCCO[C@@H](CN(C)Cc2ccc(Cl)c(Cl)c2)[C@@H](C)CN([C@@H](C)CO)C(=O)c2cc(NS(=O)(=O)c3cccs3)ccc2O1,inactive,active,inactive
NC[C@H]1O[C@H](O[C@H]2[C@H](O)[C@@H](O[C@H]3O[C@H](CO)[C@@H](O)[C@H](N)[C@H]3O)[C@H](N)C[C@@H]2N)[C@H](N)[C@@H](O)[C@@H]1O,inactive,inactive,inactive
C[C@@H]1CN([C@@H](C)CO)C(=O)Cc2cc(NS(=O)(=O)c3cccs3)ccc2O[C@H]1CN(C)S(=O)(=O)c1cn(C)cn1,inactive,inactive,inactive
O=C(C[C@H]1CC[C@H]2[C@@H](COC[C@@H](O)CN2C(=O)c2ccccc2F)O1)N1CCN(c2ccccc2)CC1,inactive,inactive,inactive
C[C@@H]1CN([C@@H](C)CO)C(=O)c2cc(NC(=O)Cc3ccccc3)ccc2O[C@@H](C)CCCCO[C@H]1CN(C)C(=O)Nc1ccccc1,inactive,inactive,inactive
Cc1noc(C)c1NC(=O)Nc1ccc2c(c1)C(=O)N([C@@H](C)CO)C[C@@H](C)[C@H](CN(C)C(=O)Nc1c(C)noc1C)OCCCC[C@@H](C)O2,inactive,inactive,inactive
Cc1ccc(S(=O)(=O)N(C)C[C@H]2OCCCC[C@H](C)Oc3ccc(NC(=O)Nc4ccc5c(c4)OCO5)cc3C(=O)N([C@H](C)CO)C[C@H]2C)cc1,inactive,inactive,inactive
CS(=O)(=O)N1CCn2cc(Cn3cncn3)nc2C1,inactive,inactive,inactive
COc1ccc(S(=O)(=O)Nc2ccc3c(c2)C(=O)N([C@@H](C)CO)C[C@H](C)[C@@H](CN(C)S(=O)(=O)c2cn(C)cn2)O3)cc1,inactive,inactive,inactive
COCC(=O)N[C@@H]1C=C[C@H](CC(=O)N2CCCCC2)O[C@H]1CO,inactive,inactive,inactive
C[C@H]1CCCCO[C@@H](CN(C)Cc2ccc(C(=O)O)cc2)[C@@H](C)CN([C@@H](C)CO)C(=O)c2cc(NS(=O)(=O)c3cccs3)ccc2O1,inactive,inactive,inactive
C[C@H](CO)N1C[C@H](C)[C@@H](CN(C)S(=O)(=O)c2cn(C)cn2)Oc2c(NC(=O)Cc3ccccc3)cccc2C1=O,inactive,inactive,inactive
Cc1noc(C)c1NC(=O)N(C)C[C@@H]1OCCCC[C@H](C)Oc2ccc(NC(=O)Cc3ccccc3)cc2C(=O)N([C@H](C)CO)C[C@@H]1C,inactive,inactive,inactive
C[C@@H]1CCCCO[C@H](CN(C)Cc2ccc(C(F)(F)F)cc2)[C@H](C)CN([C@@H](C)CO)C(=O)c2cc(NS(C)(=O)=O)ccc2O1,inactive,inactive,inactive
CC(C)NC(=O)Nc1ccc2c(c1)CC(=O)N([C@H](C)CO)C[C@H](C)[C@@H](CN(C)Cc1ccc3c(c1)OCO3)O2,inactive,inactive,inactive
C[C@H](CO)N1C[C@H](C)[C@@H](CN(C)S(=O)(=O)c2cn(C)cn2)Oc2ccc(NS(=O)(=O)c3ccc(Cl)cc3)cc2CC1=O,inactive,inactive,inactive
C[C@H]1CN([C@@H](C)CO)C(=O)Cc2cc(NC(=O)CCCCCC(=O)Nc3ccccc3N)ccc2O[C@@H]1CN(C)Cc1ccc(Cl)c(Cl)c1,inactive,inactive,inactive
C[C@@H]1CN([C@H](C)CO)C(=O)CCCn2cc(nn2)CO[C@@H]1CN(C)S(=O)(=O)c1cn(C)cn1,inactive,inactive,inactive
COc1ccc(NC(=O)N(C)C[C@@H]2OCCCC[C@@H](C)Oc3ccc(NS(=O)(=O)c4ccc(F)cc4)cc3C(=O)N([C@@H](C)CO)C[C@H]2C)cc1,inactive,inactive,inactive
CO[C@H](CN(C)C(=O)c1ccc2c(c1)OCO2)[C@@H](C)CN([C@@H](C)CO)S(=O)(=O)c1ccc(C)cc1,inactive,inactive,inactive
